Laboratory results reported in the supplement of paper PMC4604168 (melanoma cell lines).
The other results are listed elsewhere or left out. Many values rest on one well or one pass, so single values are uncertain.
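Further: cells treated in 1,536-well plates, then fixed and DAPI-stained, with nuclei counted from automated high-throughput microscope images.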

What follows are compounds tested on RPMI7951 (assay: cell count relative to DMSO control; melanoma cells; higher = more viable cells). Settings: library dose: standard library concentration; 72 h.
Compound `NC(=O)c1ccc(N(C(N)=O)c2c(F)cccc2F)nc1-c1ccc(F)cc1F` + COc1cc2ncnc(Nc3ccc(Oc4ccccc4)cc3)c2cc1OC [SrcI1] (first compound 2 µM, partner dose 10 µM) has a cell count of 53.4%.
Compound `CCCCCCCCc1ccc(CCC(N)(CO)CO)cc1` [fingolimod] + Oc1cc(-c2nc(-c3ccccc3)[nH]c2-c2ccncc2)ccc1Cl [L779450] (first compound 10 µM, partner dose 1 µM) has a cell count of 2.42%.
In the case of `NC(=O)c1ccc(N(C(N)=O)c2c(F)cccc2F)nc1-c1ccc(F)cc1F` + Oc1cc(-c2nc(-c3ccccc3)[nH]c2-c2ccncc2)ccc1Cl [L779450] (first compound 2 µM, partner dose 1 µM), the cell count is reported as 86.5%.
`COc1cc2c(Oc3ccc4[nH]c(C)cc4c3F)ncnc2cc1OCCCN1CCCC1` [cediranib] + COC(=O)c1sccc1S(=O)(=O)Nc1ccc(Nc2ccccc2)cc1OC [GSK0660] (first compound 2 µM, partner dose 5 µM) showed a cell count of 117%.
For `NC(=O)c1ccc(N(C(N)=O)c2c(F)cccc2F)nc1-c1ccc(F)cc1F` + Cc1cc([N+](=O)[O-])ccc1NS(=O)(=O)c1cc(Cl)ccc1Cl [FH535] (first compound 2 µM, partner dose 5 µM), the cell count was 91.1%.
`Cc1ccc(NC(=O)c2cccc(N(C)C)c2)cc1NC(=O)c1ccc(O)cc1` + N#Cc1c(O)c2c(-c3ccc(-c4ccccc4O)cc3)csc2[nH]c1=O [A769662] (first compound 10 µM, partner dose 10 µM) gave a cell count of 98.4%.
In the case of `NC(=O)c1ccc(N(C(N)=O)c2c(F)cccc2F)nc1-c1ccc(F)cc1F` + COc1cc(N2CCC(N3CCN(C)CC3)CC2)ccc1Nc1ncc(Cl)c(Nc2ccccc2S(=O)(=O)C(C)C)n1 [NVP-TAE684] (first compound 2 µM, partner dose 0.4 µM), the cell count is reported as 101%.
With `CCc1ccc(CCOc2ccc(CC3SC(=O)NC3=O)cc2)nc1` (configuration not stated) [pioglitazone] + COc1ccc2c(c1)CCC1C2CCC2(C)C(NCCCCCCN3C(=O)C=CC3=O)CCC12 [U73122] (first compound 10 µM, partner dose 2 µM) the cell count was 17.7%.
Compound `NC(=O)c1ccc(N(C(N)=O)c2c(F)cccc2F)nc1-c1ccc(F)cc1F` + COc1ccc2c(c1)CCC1C2CCC2(C)C(NCCCCCCN3C(=O)C=CC3=O)CCC12 [U73122] (first compound 2 µM, partner dose 2 µM) has a cell count of 22.3%.
Work on `NC(=O)c1ccc(N(C(N)=O)c2c(F)cccc2F)nc1-c1ccc(F)cc1F` + O=S(=O)(c1ccccc1)N(CC(F)(F)F)c1ccc(C(O)(C(F)(F)F)C(F)(F)F)cc1 [T0901317] (first compound 2 µM, partner dose 7 µM) yielded a cell count of 88.7%.
`CCCCCCCCc1ccc(CCC(N)(CO)CO)cc1` [fingolimod] + Cc1cc([N+](=O)[O-])ccc1NS(=O)(=O)c1cc(Cl)ccc1Cl [FH535] (first compound 10 µM, partner dose 5 µM) was tested, and the cell count was 25.8%.
`CCCCCCCCc1ccc(CCC(N)(CO)CO)cc1` [fingolimod] + COc1ccc2c(c1)CCC1C2CCC2(C)C(NCCCCCCN3C(=O)C=CC3=O)CCC12 [U73122] (first compound 10 µM, partner dose 2 µM) showed a cell count of 6.47%.
Compound `NC(=O)c1ccc(N(C(N)=O)c2c(F)cccc2F)nc1-c1ccc(F)cc1F` + COC(=O)c1sccc1S(=O)(=O)Nc1ccc(Nc2ccccc2)cc1OC [GSK0660] (first compound 2 µM, partner dose 5 µM) has a cell count of 108%.
Work on `CCCCCCCCc1ccc(CCC(N)(CO)CO)cc1` [fingolimod] + Cc1cc(Nc2cc(N3CCN(C)CC3)nc(/C=C/c3ccccc3)n2)n[nH]1 [ENMD2076] (first compound 10 µM, partner dose 0.2 µM) yielded a cell count of 2.88%.
`NC(=O)c1ccc(N(C(N)=O)c2c(F)cccc2F)nc1-c1ccc(F)cc1F` + COc1ccc(-c2ccc3c(N4CCOCC4)nc(N4C[C@@H](C)O[C@@H](C)C4)nc3n2)cc1CO [KU0063794] (first compound 2 µM, partner dose 0.1 µM) showed a cell count of 72.7%.
For `CCCCCCCCc1ccc(CCC(N)(CO)CO)cc1` [fingolimod] + O=S(=O)(c1ccccc1)N(CC(F)(F)F)c1ccc(C(O)(C(F)(F)F)C(F)(F)F)cc1 [T0901317] (first compound 10 µM, partner dose 7 µM), the cell count was 2.41%.
Compound `CCCCCCCCc1ccc(CCC(N)(CO)CO)cc1` [fingolimod] + c1cc(-c2cnn3cc(-c4ccc(OCCN5CCCCC5)cc4)cnc23)ccn1 [Dorsomorphin] (first compound 10 µM, partner dose 2 µM) has a cell count of 9.05%.
`CC(C)(C)c1cnc(CSc2cnc(NC(=O)C3CCNCC3)s2)o1` + NCC(=O)Nc1ccc(-n2nc(C(F)(F)F)cc2-c2ccc3c(ccc4ccccc43)c2)cc1 [OSU03012] (first compound 0.05 µM, partner dose 5 µM) was tested, and the cell count was 23.9%.
`NC(=O)c1ccc(N(C(N)=O)c2c(F)cccc2F)nc1-c1ccc(F)cc1F` + O=C(Nc1ccccc1)c1cc([N+](=O)[O-])ccc1Cl [GW9662] (first compound 2 µM, partner dose 10 µM) showed a cell count of 72.8%.
`CCCCCCCCc1ccc(CCC(N)(CO)CO)cc1` [fingolimod] + N#Cc1c(O)c2c(-c3ccc(-c4ccccc4O)cc3)csc2[nH]c1=O [A769662] (first compound 10 µM, partner dose 10 µM) showed a cell count of 2.99%.
`CCCCCCCCc1ccc(CCC(N)(CO)CO)cc1` [fingolimod] + CC(C)CCN1c2nc(Nc3cc(F)c(O)c(F)c3)ncc2N(C)C(=O)C1C [BID1870] (first compound 10 µM, partner dose 1 µM) was tested, and the cell count was 15.6%.
Work on `NC(=O)c1ccc(N(C(N)=O)c2c(F)cccc2F)nc1-c1ccc(F)cc1F` + N#Cc1c(O)c2c(-c3ccc(-c4ccccc4O)cc3)csc2[nH]c1=O [A769662] (first compound 2 µM, partner dose 10 µM) yielded a cell count of 99.4%.
Compound `CCCCCCCCc1ccc(CCC(N)(CO)CO)cc1` [fingolimod] + O=C(O)c1ccc(-c2c[nH]c3ncc(-c4ccccc4)cc23)cc1C1CCCC1 [GSK650394] (first compound 10 µM, partner dose 0.8 µM) has a cell count of 0.978%.
With `CCCCCCCCc1ccc(CCC(N)(CO)CO)cc1` [fingolimod] + CCN(CC)CCCCNc1ncc2cc(-c3cc(OC)cc(OC)c3)c(NC(=O)NC(C)(C)C)nc2n1 [PD173074] (first compound 10 µM, partner dose 0.5 µM) the cell count was 18.6%.
`NC(=O)c1ccc(N(C(N)=O)c2c(F)cccc2F)nc1-c1ccc(F)cc1F` + CCCCCCCCCCCC1=C(O)C(=O)C=C(O)C1=O [Embelin] (first compound 2 µM, partner dose 6 µM) was tested, and the cell count was 78.9%.
In the case of `CCCCCCCCc1ccc(CCC(N)(CO)CO)cc1` [fingolimod] + O=C(Nc1ccccc1)c1cc([N+](=O)[O-])ccc1Cl [GW9662] (first compound 10 µM, partner dose 10 µM), the cell count is reported as 3.08%.
`NC(=O)c1ccc(N(C(N)=O)c2c(F)cccc2F)nc1-c1ccc(F)cc1F` + Cn1cc(/C=C2\C(=O)Nc3cccnc32)c2ccccc21 [GW441756] (first compound 2 µM, partner dose 2 µM) was tested, and the cell count was 79.8%.
